PMC4336329 (PLoS ONE, 2015)
Out of some 310,000 compounds screened, about 2,200 (0.71%) showed an effect of 50% or more. Effects have a minus sign here. Some of the results follow.

Each compound was assayed against human ether-à-go-go-related gene (hERG) potassium channel (human, UniProt Q12809) (assay: primary screen, population patch clamp on CHO cells stably expressing hERG).
human ether-à-go-go-related gene (hERG) potassium channel, sequence (Q12809 whole entry, looked up): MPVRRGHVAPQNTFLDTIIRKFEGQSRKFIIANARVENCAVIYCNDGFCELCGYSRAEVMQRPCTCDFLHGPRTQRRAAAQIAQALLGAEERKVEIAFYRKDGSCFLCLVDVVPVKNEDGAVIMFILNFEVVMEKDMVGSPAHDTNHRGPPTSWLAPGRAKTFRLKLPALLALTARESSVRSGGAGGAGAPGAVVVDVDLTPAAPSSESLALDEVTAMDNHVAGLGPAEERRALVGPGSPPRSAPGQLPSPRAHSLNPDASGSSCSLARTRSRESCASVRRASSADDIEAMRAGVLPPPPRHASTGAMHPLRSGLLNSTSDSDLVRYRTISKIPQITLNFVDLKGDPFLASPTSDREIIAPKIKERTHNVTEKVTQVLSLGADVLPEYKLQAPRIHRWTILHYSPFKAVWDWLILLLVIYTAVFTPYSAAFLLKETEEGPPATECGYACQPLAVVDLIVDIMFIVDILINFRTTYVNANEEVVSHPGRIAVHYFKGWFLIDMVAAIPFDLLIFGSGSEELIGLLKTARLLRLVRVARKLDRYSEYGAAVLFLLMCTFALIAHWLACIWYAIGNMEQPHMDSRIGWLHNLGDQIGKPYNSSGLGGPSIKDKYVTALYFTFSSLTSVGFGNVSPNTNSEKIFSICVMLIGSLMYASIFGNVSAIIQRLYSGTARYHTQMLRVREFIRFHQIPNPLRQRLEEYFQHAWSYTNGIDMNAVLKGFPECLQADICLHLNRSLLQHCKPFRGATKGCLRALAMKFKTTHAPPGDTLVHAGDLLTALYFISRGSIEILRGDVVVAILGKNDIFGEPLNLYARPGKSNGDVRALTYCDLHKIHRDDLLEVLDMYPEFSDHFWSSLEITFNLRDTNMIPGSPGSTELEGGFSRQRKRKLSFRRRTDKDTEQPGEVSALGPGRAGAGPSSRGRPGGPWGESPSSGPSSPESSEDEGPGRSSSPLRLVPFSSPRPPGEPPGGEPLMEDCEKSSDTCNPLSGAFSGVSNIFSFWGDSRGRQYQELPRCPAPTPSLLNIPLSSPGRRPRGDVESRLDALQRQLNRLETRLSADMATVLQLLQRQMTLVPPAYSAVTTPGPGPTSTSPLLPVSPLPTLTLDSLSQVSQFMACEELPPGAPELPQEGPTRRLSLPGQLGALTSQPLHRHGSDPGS

Structure (SMILES)	hERG current change (%, negative = inhibition) at 1uM [%]
CC1CCN(CCC(=O)Nc2ccc3c(c2)OCCO3)CC1.O=C(O)C(=O)O	32.4
Cc1cccn2c(=O)c3cc(C(=O)NCC4CCCO4)c(=N)n(Cc4cccnc4)c3nc12 (stereo not shown)	-96.3
CCOC(=O)CSc1nnc(NCC(=O)OC(C)C)c(=O)[nH]1	13.5
CCc1cc(C(=O)O)c(NC(=O)/C=C/c2ccc(OC)c(OC)c2)s1	33.4
COc1ccc(C2=CC3=C(Br)C(=O)C(C)(OC(=O)C4CCCC4)C(=O)C3=CO2)cc1 (stereo not shown)	10.1
CCCN(CC(=O)Nc1ccc(C(N)=O)cc1)CC(=O)Nc1ccccc1C	15.4
Cc1ccccc1OCCSc1nc2ccccc2n1CCC(=O)O	8.07
Cc1ccc2c(C)c(C(=O)N(Cc3ccc(N(C)C)cc3)C3CCS(=O)(=O)C3)oc2c1 (stereo not shown)	8.54
CC(=O)N1CCC(N2CCCC(C(=O)c3cccc(Cl)c3)C2)CC1 (stereo not shown)	3.34
O=C(Nc1ccc(Cl)cn1)C1CCCN1S(=O)(=O)c1ccccc1 (stereo not shown)	2.67
Cc1cccc(/C(N)=N/OC(=O)Cc2cccs2)c1	6.61
CCN1C(=O)[C@H]2[C@@H](c3ccc(C)cc3)N3C(=O)N(c4cccc(Cl)c4)C(=O)[C@@]3(Cc3ccccc3)[C@H]2C1=O	11.4
O=C(Nc1ccccc1C(=O)NCc1cccnc1)c1ccco1	6.43
O=C(Nc1nc(=O)c2ccccc2s1)c1ccccc1	-1.73
CCc1ccccc1N1CC(C(=O)Nc2cc(C)on2)CC1=O (stereo not shown)	2.08
C=CCNC(=S)NN(c1ccccc1)c1ccccc1	8.76
Cc1ccc(S(=O)(=O)N/N=C/C(C)(C)CO)cc1	8.87
CC(=O)N[C@@H]1[C@@H](O)[C@@H]2OC(c3ccccc3)OC[C@H]2O[C@@H]1N=[N+]=[N-] (stereo partly shown)	13.7
Cc1cc(C(=O)CSc2nnc(-c3cccnc3)n2-c2ccccc2F)c(C)n1C	-1.28
O=Cc1c(-c2ccc(F)cc2)nc2ccccn12	7.15
COc1cc(NC(=O)CSc2nnc3c(n2)[nH]c2ccc(S(=O)(=O)NC(C)C)cc23)cc(OC)c1OC	7.39
CCOc1ccc(Br)cc1S(=O)(=O)Nc1cccc(S(=O)(=O)N(C)c2ccccc2)c1	11.7

Structure (SMILES)	hERG current change (%, negative = inhibition) at 1uM [%]
Cc1ccc(Cc2nc(-c3cccc(C)c3)no2)cc1	16.5
Cc1sc(N)c(C(=O)c2ccccc2Cl)c1C	8.67
COc1ccc2nc(NC(=O)CSc3ccccc3)sc2c1	-3.66
Cc1cccc(C)c1NC(=S)Nc1c(C)n(C)n(-c2ccccc2)c1=O	2.99
COc1ccc(C2(CNC(=O)c3ccccc3)CCCC2)cc1OC	5.36
N#CCCn1cc(C(=O)O)c(-c2cc3ccccc3o2)n1	22.2
Cn1c(CSc2nc3ccccc3s2)n[nH]c1=S	14.9
C/C(=N\NC(=O)CN(c1ccccc1)S(C)(=O)=O)c1ccccc1O	8.18
O=C(c1cccc(S(=O)(=O)Nc2cccc(C(F)(F)F)c2)c1)N1CCOCC1	4.23
O=C(NC(=O)c1ccccc1F)Nc1nc(-c2cccs2)cc(C(F)(F)F)n1	2.15
CCC(C)c1ccc(OCC(=O)Nc2ccc3c(c2)C(=O)NC3=O)cc1 (stereo not shown)	13.5
COc1cc(/C=N/NC(=O)c2cccnc2)ccc1OC(=O)c1ccc([N+](=O)[O-])cc1	14.3
CN(C)S(=O)(=O)c1ccc(C(=O)OCCCN=C2NS(=O)(=O)c3ccccc32)cc1	-5.83
Cc1cc(C)cc(NS(=O)(=O)c2csc(C(N)=O)c2)c1	15.1
Nc1cccc(-c2nc3ccccc3[nH]2)c1	8.94
COc1ccccc1N1CCN(S(=O)(=O)CCNC(=O)c2ccccc2Br)CC1	11.6
CCCCN(CCCNC(=O)CN1C(=O)COc2ccccc21)c1ccccc1	3.47
CCOC(=O)c1cc(-c2ccccc2)sc1NC(=O)COC(=O)c1ccc(Cl)c(S(N)(=O)=O)c1	5.17
CCOc1ccc2nc(N3CCC(C(=O)N4CCN(c5ncccn5)CC4)CC3)sc2c1	4.83
COc1ccc(-c2nc(CCl)cs2)cc1.Cl	8.51
COc1ccccc1/C=C/C(=O)Nc1ccc(S(=O)(=O)Nc2cc(C)nc(C)n2)cc1	12
